Molecules are shown by their SMILES.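 Test compounds were applied to cells in 96-well plates for 48 hours at 5 doses. GI50 = concentration required for 50% inhibition of growth.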 Active and inactive are the calls of the source. Rule as the data show it: active = GI50 up to about 1.1 µM and inactive = higher. Bounds are passed on as bounds.

In this test the test system is NCI-H322M. The experiment in a line: NCI anticancer screen, dose series, 48 h.
In the case of `S=C(c1c[nH]c2ccccc12)N1CCOCC1`, the GI50 was inactive: > 100 µM. For `O=C(Nc1cnc(O)nc1O)Oc1ccccc1`, the GI50 was inactive: > 100 µM.

Turning to `Nc1nc(-c2ccccc2)c(-c2ccccc2)c(-c2nc(N)nc(-c3ccccc3)c2-c2ccccc2)n1`, the GI50 is inactive: 90.2 µM. Regarding `COc1cc(/C=C(\C#N)C(=O)c2ccccc2)ccc1O`, the GI50 was inactive: > 100 µM.

As for `COC(=O)C1CCOC(C)N1C(=O)OC(C)(C)C` (stereo unspecified), the GI50 is inactive: > 100 µM. In the case of `N#CCCN(CCC#N)c1ccc(/C=C2\N=C(c3ccccc3)N(NC(N)=S)C2=O)cc1`, the GI50 is inactive: > 100 µM. Turning to `C=C1C(=O)C2=C[C@H]1C[C@H](O)C(=O)[C@]1(C)CCCC(C)(C)[C@H]1C[C@H]2O`, the GI50 is inactive: 16.2 µM.

For the molecule `CCCCc1nc(C)oc1C(C)C`, the GI50 was inactive: > 100 µM. `OCc1nnn2c1CCC2`: the GI50 was inactive: > 100 µM. On to `COc1cc(/C=C2\N=C(C)N(n3c(-c4ccccc4)nc4ccccc4c3=O)C2=O)cc(OC)c1OC`, for which the GI50 was inactive: > 100 µM. Consider `COc1ccc([C@@H]2CC(=O)N2)cc1`, for which the GI50 was inactive: > 100 µM.

As to `O=C(/C=C/c1ccccc1)CCC1C(=O)NC(=S)NC1=O`, the GI50 was inactive: > 100 µM. In the case of `COc1cc2c(cc1OC)C(Cl)C(c1ccc(Cl)cc1)=C2Cl` (stereo unspecified), the GI50 is inactive: 18.4 µM. Turning to `CC1CC[C@@]2(OC1)OC1C[C@H]3[C@@H]4CC[C@H]5CC(OC6OC(CO)C(O)C(OC7OC(CO)C(OC8OC(CO)C(O)C(OC9OC(CO)C(O)C(O)C9O)C8OC8OC(CO)C(O)C(O)C8O)C(O)C7O)C6O)[C@H](O)CC5(C)[C@H]4CCC3(C)C1[C@@H]2C` (stereo partly specified), the GI50 was inactive: 2.27 µM. With `CCOC(=O)NC(=O)c1cn(-c2ccc(CCOC(=O)NCCCCCCNC(=O)OCCc3ccc(-n4c(=O)[nH]cc(C(=O)NC(=O)OCC)c4=O)cc3)cc2)c(=O)[nH]c1=O` the figure was inactive: > 100 µM; with `Cc1ccc(S(=O)(=O)N/N=C2\C(=O)C3CC2C(Cl)C3Cl)cc1` (stereo unspecified), inactive: > 100 µM.

Turning to `CCN(CC)C1=Nc2ccccc2-n2c(C)cnc2C1`, the GI50 was inactive: > 100 µM. Take `O=c1[nH]c(-c2ccccc2)nc2ccc(Cl)cc12`: the GI50 was inactive: 95.9 µM.

On to `Cc1ccc(/N=N/NCCCCN)cc1`, for which the GI50 is inactive: > 100 µM.

As to `CCOC(=O)C(SCCO)C(C(=O)OCC)n1ccc(N)nc1=O` (stereo unspecified), the GI50 was inactive: > 100 µM. `O=C1CC(C(O)C(O)C(O)CO)CC(=O)N1` (stereo unspecified): the GI50 was inactive: > 100 µM. The result for `CC(=O)O/N=C/c1ncccc1OC(C)=O` reads inactive: > 100 µM.

`CC(=O)O/C(=C(/C#N)C(=O)O)C1C(C(=O)O)C(c2ccccc2[N+](=O)[O-])C=C(c2ccco2)N1c1ccncc1` (stereo unspecified): the GI50 was inactive: 8.67 µM. For `NC12CC3CC(C1)CC(C(=O)O)(C3)C2`, the GI50 is inactive: > 100 µM. Consider `CCOC(=O)/C([O-])=C(\C(=O)OCC)[n+]1c(C)n(C)c2ccccc21`, for which the GI50 was inactive: > 100 µM. With `CN(C)c1ccc(-c2ccc(N(C)C)c3n[se]nc23)c2n[se]nc12`, the GI50 was inactive: > 100 µM. As for `CCSc1c2ccccc2nc2c(OC)ccc(OC)c12`, the GI50 was inactive: 25.9 µM. In the case of `Cn1c2ccccc2c2c3c(c4c5ccccc5n(C)c4c21)C(=O)N(Cc1ccccc1)C3=O`, the GI50 is inactive: > 100 µM. `NC1CC(Cl)c2c(Cl)sc(Cl)c21` (stereo unspecified): the GI50 was inactive: > 100 µM. As for `CC(C(O)Cc1ccccc1)N(C)/N=N/c1ccc([N+](=O)[O-])cc1` (stereo unspecified), the GI50 was inactive: 27.7 µM. As for `CN(C)CCCNc1ccc2nnn3c4ccc(OC(=O)c5ccccc5)cc4c(=O)c1c23`, the GI50 was inactive: 4.11 µM. In the case of `NC(Cc1ccc2oc3cc(=O)c4ccccc4c-3nc2c1)C(=O)O` (stereo unspecified), the GI50 is inactive: 18.6 µM. The result for `CCOC(=O)C12CCC(=O)C=C1[C@@H](C)C(=O)CC2` (stereo partly specified) reads inactive: > 100 µM; that for `CCN(CC)c1ccc(/C=C/C2=NN(c3cccc(S(=O)(=O)O)c3)C3(C2)SCC(=O)N3c2nc3ccccc3s2)cc1` (stereo unspecified), inactive: 61 µM. The result for `O=C(COc1ccc(Cl)cc1)N1N=C(c2ccc(Cl)cc2)CC1(O)c1ccccc1` (stereo unspecified) reads inactive: 17 µM. On to `O=S1(=O)N2CN3CN(C2)CN1C3`, for which the GI50 was inactive: 142 µM. Take `O=C(Oc1c(I)ccccc1=O)c1ccc([N+](=O)[O-])cc1`: the GI50 was inactive: 55.6 µM. Take `C=C(C)[C@H]1[C@@H]2OC(=O)[C@H]1[C@]1(O)C[C@H]3OC34C(=O)O[C@H]2[C@@]41C.CC(C)(O)[C@H]1[C@@H]2OC(=O)[C@H]1[C@]1(O)C[C@H]3OC34C(=O)O[C@H]2[C@@]41C` (stereo partly specified): the GI50 was inactive: > 100 µM.

For the molecule `COC(=O)c1ccccc1C1CN=NC12Cc1cc(C)c(C)cc1C2=O` (stereo unspecified), the GI50 is inactive: 74 µM.

On to `CCN1CCC(O)(c2ccc(Oc3ccc(F)cc3)cc2)C(C(=O)c2ccc(Oc3ccc(F)cc3)cc2)C1` (stereo unspecified), for which the GI50 was inactive: 16.1 µM.

As for `O=C(CNCc1ccccc1)Oc1c(Cl)c(Cl)c(Cl)c(Cl)c1Cl`, the GI50 is inactive: 26.7 µM.

`Cc1ccc(CNc2ccc(Br)cc2)cc1`: the GI50 is inactive: 52.1 µM.

`N#C/C(=C\c1cc(Cl)cc(Cl)c1)c1ccccn1`: the GI50 is inactive: 54.1 µM. Regarding `CN1CCN(CCCNN)CC1`, the GI50 was inactive: > 100 µM. Take `COc1ccc2nc3cc([N+](=O)[O-])ccc3c(NNc3ccccc3)c2c1`: the GI50 is inactive: 41.8 µM.

With `CSc1sc(=S)sc1C(=O)N(C)c1ccccc1`, the GI50 is inactive: > 100 µM. Regarding `CSc1c(C(N)=S)c(N)nn1-c1ccccc1`, the GI50 was inactive: > 100 µM.

Consider `O=C1NC2CCCCCC2C12CCCCC2` (stereo unspecified), for which the GI50 was inactive: > 100 µM. Take `NC(CSC1c2ccccc2-c2ccccc21)C(=O)O` (stereo unspecified): the GI50 is inactive: > 100 µM.

As to `O=C(c1ccccc1)C1C(C(=O)c2ccccc2)N1Cc1ccccc1` (stereo unspecified), the GI50 was inactive: 41.6 µM. The result for `CCOC(=O)OC1(c2ccccc2)CCN(C)CC1` reads inactive: > 100 µM; that for `COC(=O)c1ccccc1C1CN=NC12Cc1ccc3ccccc3c1C2=O` (stereo unspecified), inactive: 67.6 µM; that for `O=c1[nH]c(=O)n(C2OC(CO)C(O)C2O)cc1OCCc1ccccc1` (stereo unspecified), inactive: > 100 µM. Take `CCCC[C@@H]1CCN2C[C@@H](O)[C@@H](O)[C@H]2[C@@H]1O`: the GI50 was inactive: > 100 µM. As to `COC(=O)c1c/c(=N\NC(=O)CC(=O)Nc2ccccc2Cl)c2ccccc2o1`, the GI50 is inactive: > 100 µM. For the molecule `CC1CC(c2ccccc2)=Nc2ccccc2S1(=O)=O` (stereo unspecified), the GI50 is inactive: 11.2 µM. Take `C/C(=N\Nc1nc2cc(C(F)(F)F)ccc2s1)c1ccccn1`: the GI50 was active: 0.362 µM. With `CC1(C)C2CC(=O)C1(C)C(O)C2Br` (stereo unspecified) the figure was inactive: > 100 µM; with `COC(=O)CC1(O)C(/C=C/c2ccccc2)C(C(=O)OC)C(=O)C(C(=O)OC)C1C(=O)OC` (stereo unspecified), inactive: > 100 µM; with `NC(N)NCCCc1cn2c(n1)C1CCCN1C(=O)C2Cc1ccccc1` (stereo unspecified), inactive: > 100 µM. In the case of `CCCCC1(OC(=O)CCC(=O)O)CCC2(CCC(C)C(C/C=C(C)/C=C/C(O)C(C)/C=C/C(=O)O)O2)OC1CC/C(C)=C/C(=O)O` (stereo unspecified), the GI50 was inactive: 3.64 µM. The result for `Nc1ccc(C(=O)NN2C(=O)C(Cl)C2c2ccc(O)cc2)cc1` (stereo unspecified) reads inactive: 17.4 µM; that for `O=C1/C(=C/c2cccc([N+](=O)[O-])c2)Sc2scc(-c3ccc([N+](=O)[O-])cc3)[n+]21`, inactive: 27.3 µM; that for `N#CCCN(CCC#N)c1ccc(/C=N\c2nc(-c3ccccc3)cs2)cc1`, inactive: > 100 µM.

With `Cc1nc(OCc2ccccc2)c2ncn(CCO)c2n1`, the GI50 was inactive: > 100 µM. Consider `CCC(=O)Oc1ccc2c(c1)c(=O)c1c(NCCCN(C)C)ccc3nnn2c31`, for which the GI50 is inactive: 1.33 µM. With `OCCSCc1cc2c(O)c(c1)Cc1cc(CSCCO)cc(c1O)Cc1cc(CSCCO)cc(c1O)Cc1cc(CSCCO)cc(c1O)C2`, the GI50 was inactive: 7.05 µM. As for `O=c1/c(=C/c2cccc3ccccc23)sc2nc3ccccc3n12`, the GI50 is inactive: > 100 µM. On to `COC1=CC(=O)C(Br)=CC1=O`, for which the GI50 is inactive: > 100 µM. Take `COC(=O)C1=CC(=O)C(C(=O)Nc2ccc(OC)cc2)C(c2ccccc2)O1` (stereo unspecified): the GI50 is inactive: 44.2 µM. For the molecule `O=c1n(CCCN2CCN(c3cccc(Cl)c3)CC2)nc2n1-c1ccc3ccccc3c1SC2`, the GI50 was inactive: > 100 µM.

In the case of `Nc1csc(-c2scc3c2OCCO3)c1N`, the GI50 was inactive: 32.3 µM. As for `CCCCCCCCCCCOc1ccc(C(=O)C(=O)c2ccc(OCCCCCCCCCCC)c(OCCCCCCCCCCC)c2)cc1OCCCCCCCCCCC`, the GI50 is inactive: > 100 µM. For the molecule `NC(N)=NCc1ccc2c(c1)OCO2`, the GI50 was inactive: > 100 µM. Turning to `CC(C)(C)CC(C)(C)NCC(O)COc1ccc(C(C)(C)c2ccc(OCC(O)CNC(C)(C)CC(C)(C)C)cc2)cc1` (stereo unspecified), the GI50 is inactive: 1.71 µM. With `COc1ccc(S(=O)(=O)O)cc1-n1nc(C(=O)Nc2ccccc2)n[n+]1-c1cc(S(=O)(=O)[O-])ccc1OC`, the GI50 is inactive: > 100 µM.

With `CC(NNC(=O)c1ccc[n+]([BH2-]C#N)c1)c1ccccc1` (stereo unspecified), the GI50 is inactive: > 100 µM. The result for `CC1O[C@@H]2CCCCC(=O)[C@]2(C)[C@H]1C` (stereo partly specified) reads inactive: > 100 µM; that for `N#[N+]c1cc2c(cc1Br)-c1ccccc1C2`, inactive: 79.3 µM. With `C[n+]1c(/C=C/c2ccc(/C=N/NC(=O)c3ccc(C(=O)N/N=C/c4ccc(/C=C/c5cn6ccccc6[n+]5C)cc4)cc3)cc2)cn2ccccc21`, the GI50 was inactive: > 100 µM.

Take `COC(=O)[C@@H]1c2cc3c(c(O)c2[C@@H](OC)C[C@@]1(C)O)C(=O)c1c(O)cc2c(c1C3=O)OC1O[C@@]2(C)[C@H](O)[C@@H](N(C)C)[C@@H]1O`: the GI50 was active: 0.379 µM.

These data come from ChEMBL document CHEMBL1201862, “PubChem BioAssay data set” (2004).
